# Laboratory results reported in PubChem BioAssay AID1468 (National Center for Advancing Translational Sciences (NCATS), 2008).
# Values joined by “and” are separate entries in the source; they are usually repeats but may differ in a detail not shown here. Identical values can stand only once. The whole screen tested about 280,000 compounds, of which about 1,100 (0.39%) were called active. Inconclusive results, whose numbers are uncertain, are shown with a selection of clear calls. Calls follow the shape of the dose curve; as a rule, active = well fitted inhibition curve with a large enough effect; inconclusive = small, poorly fitted or top-dose-only effect, or effect the other way; inactive = flat fitted curve, though single readings scatter. A potency beside an inconclusive call is a rough fit, not a confirmed value.
# Target: Microtubule-associated protein tau (Homo sapiens) (UniProt P10636)
# Test: qHTS for Inhibitors of Tau Fibril Formation, Fluorescence Polarization; also: nearly all actives have a fitted effect of over 55% in size
# Details: K18 P301L tau heparin fibrillization, Alexa594 FP, 6 h; series mostly up to 57.7 µM
# Summary of the method: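 Compound effects on tau fibrillization are measured by Alexa 594 fluorescence polarization (ex 555, em 632 nm). K18 P301L tau is used at 15 uM with 0.24 uM labeled tracer, and 20 uM heparin induces aggregation over 6 hr at 37 C.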
# Potency is read from the fitted curve at half-maximal effect; tags tell the direction and shape of the fitted curve.
# Sequence of UniProt P10636 (P10636 whole entry, looked up): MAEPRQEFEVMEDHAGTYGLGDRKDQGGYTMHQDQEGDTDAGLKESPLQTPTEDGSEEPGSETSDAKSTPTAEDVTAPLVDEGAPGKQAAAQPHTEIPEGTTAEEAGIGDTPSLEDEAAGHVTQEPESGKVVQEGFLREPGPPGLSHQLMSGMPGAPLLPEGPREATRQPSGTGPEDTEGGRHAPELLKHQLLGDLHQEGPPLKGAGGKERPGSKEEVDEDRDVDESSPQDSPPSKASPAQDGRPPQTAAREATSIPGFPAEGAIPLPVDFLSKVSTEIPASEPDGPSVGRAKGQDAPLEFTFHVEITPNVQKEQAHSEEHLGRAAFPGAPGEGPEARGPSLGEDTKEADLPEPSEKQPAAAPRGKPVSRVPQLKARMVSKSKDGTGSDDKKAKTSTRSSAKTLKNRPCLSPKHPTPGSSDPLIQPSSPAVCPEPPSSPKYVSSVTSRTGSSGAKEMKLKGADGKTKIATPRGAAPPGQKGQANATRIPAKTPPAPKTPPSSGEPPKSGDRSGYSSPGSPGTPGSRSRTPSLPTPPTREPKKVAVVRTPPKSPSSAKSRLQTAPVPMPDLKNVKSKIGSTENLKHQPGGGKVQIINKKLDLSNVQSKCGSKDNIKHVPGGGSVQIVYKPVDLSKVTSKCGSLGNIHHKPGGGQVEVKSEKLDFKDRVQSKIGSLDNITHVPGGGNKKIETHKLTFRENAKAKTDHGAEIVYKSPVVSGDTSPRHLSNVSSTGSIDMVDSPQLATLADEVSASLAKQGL
row,SMILES,Potency
1,Cc1ccc2ncc3c(-c4ccccc4)nn(CC(=O)NC4CCCCC4)c3c2c1,inactive
2,CC1(C)CC(=O)C(CC2C(=O)CC(C)(C)CC2=O)C(=O)C1,"inconclusive: 12.6 µM [inhibitor, partial curve]"
3,Cc1ccc(C(C[N+](=O)[O-])n2nc(C)cc2C)cc1 (configuration not stated),inactive
4,Cc1ccc(S(=O)(=O)Nc2cc(C)c(O)c(S(=O)(=O)c3ccc(C)cc3)c2)cc1,inactive
5,CCN(CC)S(=O)(=O)c1cccc(C(=O)NC(C(=O)NC2=NCCS2)C(C)C)c1 (configuration not stated),"inconclusive: 2.51 µM [inhibitor, partial curve, poor fit]"
6,CCc1ccc(CN2CCc3nc(Nc4ccc5c(c4)OCCO5)ncc3C2)cc1,"inconclusive: 11.2 µM [activator, partial curve]"
7,CCc1ccc(-c2nc(SCC(=O)NCCOC)c(-c3ccc(C)cc3)[nH]2)cc1,"inconclusive: 3.98 µM [activator, single point]"
8,CCCCCCCc1nc2sc3c(c2c(=O)n1N)CC(C)(C)OC3,inactive
9,COc1ccc(NC(=O)c2sccc2SCc2cccc(C(F)(F)F)c2)cc1,"inconclusive: 35.5 µM [inhibitor, single point]"
10,COc1ccc2cc(CNc3ccc(OC)c(OC)c3)c(=O)n(CC(=O)Nc3ccc(C)cc3)c2c1,"inconclusive: 2.24 µM [activator, full curve, poor fit]"
11,Cc1c(Cl)cccc1NC(=O)CSC(N)=O,"inconclusive: 15.8 µM [inhibitor, partial curve]"
12,CSc1ccc(S(=O)(=O)N2CCN(Cc3ccc4c(c3)OCO4)CC2)cc1,inactive
13,O=C(CSc1nnc(Cn2nnc(-c3ccccc3)n2)n1-c1ccccc1)Nc1ccccc1,"inconclusive: 11.2 µM [inhibitor, partial curve]"
14,CC(C)(C)N(NC(=O)Nc1ccc(Cl)c(Cl)c1)C(=O)c1ccccc1,"inconclusive: 25.1 µM [inhibitor, single point]"
15,COc1ccccc1/C=C1\Cc2ccccc2C1=O,inactive
16,Cc1cccc2[nH]c3c(N4CCC5(CC4)OCCO5)ncnc3c12,"inconclusive: 44.7 µM [activator, single point]"
17,CCCOc1cccc(C(=O)Nc2ccc(-c3nc4ccccc4o3)cc2)c1,"inconclusive: 15.8 µM [inhibitor, partial curve, poor fit]"
18,CCOc1ccc(C(=O)N/N=C(/C)C2C(=O)c3ccccc3C2=O)cc1,inactive
19,O=C(COCc1cc(-c2ccco2)on1)Nc1ccc(OC(F)(F)F)cc1,"inconclusive: 4.47 µM [inhibitor, full curve]"
20,COc1ccccc1CN1CCNC(=O)C1CC(=O)N(C)Cc1cnccn1 (configuration not stated),"inconclusive: 0.282 µM [inhibitor, full curve, poor fit]"
21,O=[N+]([O-])c1ccc(-c2cnc(SC(c3ccccc3)c3ccccc3)[nH]2)cc1,"inconclusive: 44.7 µM [inhibitor, single point]"

row,SMILES,Potency
1,CCOc1ccc(NC(=O)c2ccc(NC(=O)Cc3n[nH]c(=O)c4ccccc34)cc2)cc1,"inconclusive: 17.8 µM [inhibitor, partial curve]"
2,Cc1ccc(-n2ncc3c(NCCC4=CCCCC4)ncnc32)cc1C,"inconclusive: 1.41 µM [inhibitor, full curve, poor fit]"
3,O=C(c1cc2c(ccc3ccccc32)oc1=O)N1CCCC1,"inconclusive: 7.94 µM [inhibitor, single point]"
4,COc1ccc(C2C(C#N)=C(N)Nc3nc4ccccc4n32)cc1 (configuration not stated),"inconclusive: 28.2 µM [inhibitor, partial curve]"
5,NS(=O)(=O)c1ccc(CCNc2nc3c(-c4cccc(F)c4)nnn3c3ccc(Cl)cc23)cc1,"inconclusive: 20 µM [inhibitor, partial curve]"
6,CCOc1ccc(C(=O)NCC(=O)OCC(=O)c2ccc3c(c2)-c2ccccc2C3)cc1,"inconclusive: 2.24 µM [inhibitor, partial curve, poor fit]"
7,CCN1CCN(C(=O)c2ccc3c(c2)N(Cc2cc(C)ccc2C)C(=O)c2ccccc2S3=O)CC1 (configuration not stated),inactive
8,COC(=O)c1cc(NC(=O)CN(c2ccccc2)S(=O)(=O)N(C)C)ccc1Cl,inactive
9,COc1cc(CN2CCC(C(=O)N3CCCC(C)C3)CC2)cc(OC)c1O (configuration not stated),inactive
10,O=C(NC(=S)Nc1ccc(Cl)cn1)C(c1ccccc1)c1ccccc1,"inconclusive: 31.6 µM [inhibitor, partial curve, poor fit]"
11,CSC(SC)=C(C#N)C(=O)c1ccccc1,active: 14.1 µM
12,COC(=O)c1ccc(Sc2nnnn2-c2ccccc2)c([N+](=O)[O-])c1,"inconclusive: 7.94 µM [inhibitor, single point]"
13,COc1ccc(Nc2c([N+](=O)[O-])ccc3c2=NC2(CCCCC2)N=3)cc1,"inconclusive: 39.8 µM [inhibitor, single point]"
14,Nc1[nH]n(-c2ccccc2)c(=O)c1N=Nc1ccc2ncsc2c1,"inconclusive: 14.1 µM [inhibitor, partial curve]"
15,Cc1ccc(CSc2nc3ccc(NC(=O)COc4ccccc4F)cc3s2)cc1,"inconclusive: 15.8 µM [inhibitor, partial curve]"
16,CCOC(=O)c1c(C)oc2c(Cl)cc(NS(=O)(=O)c3ccc(Cl)c(C)c3)cc12,"inconclusive: 4.47 µM [inhibitor, full curve]"
17,CC(=O)NCc1ccc2[nH]c(C)cc2c1,"inconclusive: 17.8 µM [inhibitor, partial curve, poor fit]"
18,CCC1C(c2ccccc2)N(C)C(c2ccccc2)CC1(O)c1ccccc1 (configuration not stated),inactive
19,Cc1ccc2nc(N(CCCN(C)C)C(=O)c3ccc(Br)s3)sc2c1,"inconclusive: 12.6 µM [inhibitor, partial curve] and inconclusive: 39.8 µM [inhibitor, single point]"
20,CSc1nc2c(c(-c3ccc(O)cc3)c1C#N)CCC2,"inconclusive: 25.1 µM [inhibitor, partial curve]"
21,COc1ccc(Br)cc1C1CC(=O)N2CN(C)CSC2=C1C#N (configuration not stated),"inconclusive: 35.5 µM [inhibitor, single point]"
